Measurements: the supplement of paper PMC3334620
In all, about 33,000 sequences were measured (“E-score (-0.5 to 0.5)”: median about -0.012, highest 2% from about 0.29 on). The list shows a part of the results.

The sequences below were run against T1, Ybr033w (UniProt P38073) (assay: PBM E-score (8-mer binding enrichment) (E-score (-0.5 to 0.5)); higher = stronger / more preferred TF binding; most listed sequences are background and not binding sites). Settings: protein concentration: 200 nM; construct: GST-full length.
T1 sequence: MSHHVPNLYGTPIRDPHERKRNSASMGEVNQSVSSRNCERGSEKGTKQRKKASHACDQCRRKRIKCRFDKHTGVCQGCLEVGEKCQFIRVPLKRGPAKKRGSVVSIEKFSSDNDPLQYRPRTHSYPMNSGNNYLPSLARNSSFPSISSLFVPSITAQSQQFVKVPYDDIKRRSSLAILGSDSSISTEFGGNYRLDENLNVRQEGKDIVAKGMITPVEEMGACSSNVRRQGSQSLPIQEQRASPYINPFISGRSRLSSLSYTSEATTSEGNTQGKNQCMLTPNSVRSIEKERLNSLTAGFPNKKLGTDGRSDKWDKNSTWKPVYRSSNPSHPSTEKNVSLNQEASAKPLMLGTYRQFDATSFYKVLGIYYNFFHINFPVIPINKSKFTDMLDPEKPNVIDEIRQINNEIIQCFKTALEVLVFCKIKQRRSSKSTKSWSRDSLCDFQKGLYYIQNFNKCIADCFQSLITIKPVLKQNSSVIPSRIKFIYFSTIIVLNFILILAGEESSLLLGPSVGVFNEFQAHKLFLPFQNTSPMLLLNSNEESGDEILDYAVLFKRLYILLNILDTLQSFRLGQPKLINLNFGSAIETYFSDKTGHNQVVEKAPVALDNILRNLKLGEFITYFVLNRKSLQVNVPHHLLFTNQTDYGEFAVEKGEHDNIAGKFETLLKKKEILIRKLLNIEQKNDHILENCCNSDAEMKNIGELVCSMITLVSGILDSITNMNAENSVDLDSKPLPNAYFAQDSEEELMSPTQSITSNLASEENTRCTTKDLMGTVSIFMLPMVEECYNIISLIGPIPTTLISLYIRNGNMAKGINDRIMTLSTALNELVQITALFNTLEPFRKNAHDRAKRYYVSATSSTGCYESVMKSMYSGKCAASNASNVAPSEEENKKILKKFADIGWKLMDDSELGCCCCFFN
Method in brief: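 Detection of bound protein used fluorescent anti-GST, with scans normalised by masliner. The proteins were GST-tagged yeast transcription factors applied at about 100-200 nM to universal all-10-mer Agilent arrays made double-stranded by primer extension. Each ungapped eight-base word, pooled with its reverse complement, was scored with an E-score from the Universal PBM Analysis Suite.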

Sequence	PBM E-score
ACATAGTA	0.222
CCTTGAGA	0.0546
CTATGCGA	-0.0724
ATAATCAT	0.292
CATGACCA	-0.0597
ACCAGATC	-0.0601
GGCTAGCA	-0.219
CCCGTGCG	-0.195
ACAACGCG	-0.0674
GAGCTCGC	-0.175
CGATCCTA	-0.0657
AGGGAACC	-0.205
GAGTGTAA	-0.0812
CCAGTATC	-0.15
AAGGAAAA	0.398
AGGGCAAT	-0.0627
AAGGCGGC	-0.237
ACACAGAG	-0.0727
CCGTTATA	-0.0193
GATAGCAA	0.102
ATGCATTA	0.261
AGGACAAT	0.108
ACTGAGCC	-0.094
CTGTAGAA	0.0486
AGAGGAAA	0.104

Sequence	PBM E-score
GAGTCAGA	-0.00932
AGTGTTAA	0.224
AAAAACGG	0.0555
CCAATTAA	0.215
ACTAACAG	0.219
AACTCCGA	-0.0263
CTGATGGA	-0.133
AGAGAGAA	-0.203
AAAAGGCC	-0.116
CCGGCTGC	-0.145
CAATAAAA	0.225
AATCTCTG	0.00055
AAAGCTTT	-0.166
ACTCAGAC	-0.00317
AGTACGGA	0.17
ATAGTCTC	0.158
AAAACAGT	0.228
ACAGCCCG	-0.175
ACGCCTTG	-0.0446
AGTCTGAA	-0.105
AGAAATTC	0.178
ACCACCAC	0.139
AGCTAAGG	-0.119
AAATCGCA	0.173
GCAGATTA	-0.0599

Sequence	PBM E-score
CAGTGCCG	-0.105
CGGGGTAG	-0.177
AATTATTC	0.423
CAAGGTGG	-0.083
CACAACGA	-0.00978
CCTTGTGA	0.0244
CGCTGCCC	-0.425
CGGTTTCA	0.0544
GGTAAAAC	0.083
ACAATCCG	0.0606
GAGGCCTA	-0.246
CTGAGCGA	-0.00633
AGGGCGCA	-0.164
ATGGAGGA	0.0389
CAGGGTCA	-0.203
CACGTATC	0.0548
CAGAGAGA	-0.223
AAATCCAA	0.191
GAAGGAGA	-0.116
ATAACTGG	0.144
CTAGCAAG	0.00544
CAAACCTG	-0.0583
GGAGAACA	0.026
GATTCGGC	0.028
ATCAAAGA	0.0429

Sequence	PBM E-score
CCCTAGAG	-0.113
GCCTATCC	-0.188
GTAGCTCA	0.108
TAACGACA	0.0572
AGTACCCC	-0.279
AGGATGGA	0.0276
ATCGACAA	0.074
ATTGCAAT	0.225
AGCATGTC	-0.0812
ACGTTCAA	-0.106
GGATAACA	0.0661
ATATTAGG	0.278
CTTGGGTA	-0.073
ATCGGCGG	-0.0596
GACTAGAA	0.0495
ACATCAGC	0.0543
CGGACCCC	-0.313
CTTCGAAC	0.0126
GACTCACC	-0.171
GCCACTCA	-0.179
TATAGGAA	0.232
CAGTTGTC	0.123
GTATCAGA	0.106
GGACTGCA	-0.208
ATGTCAAT	0.148

Sequence	PBM E-score
GTCCCCAC	-0.293
GAGTGGTA	-0.0215
AGCCTGCG	-0.277
AATCGAAC	-0.0916
AAACTAAT	0.254
ATCTTCGG	0.132
GTTACAAC	-0.00898
ACGTGCCT	-0.0895
ATTTGGGA	0.14
ATCCCATC	0.01
CCTGATCG	-0.0466
AAATTGAT	0.336
ATTTGTGA	0.231
GAGCTAAA	-0.139
TCCTGCCA	-0.189
ACCTCCAA	-0.115
ATGGAAAA	0.32
ACGGGTCA	-0.277
CCACCAAG	-0.0378
AAACCCAG	0.0703
ACATCAAC	0.201
AATAACAC	0.222
GACCAAGC	-0.0405
ATCAATGC	-0.00485
AACATCCA	0.115

Sequence	PBM E-score
GGACAAAC	-0.00297
GAAAAGGA	-0.111
ATAGCCAG	-0.115
CGCTGTGC	0.00463
CGACAAGC	-0.215
CAACATCC	-0.07
CCGGGAGC	-0.219
AGGCTGAG	-0.179
CCAAAGTA	0.118
GAAGTTAA	-0.0175
ACATCAAT	0.0787
CAAACCAC	0.00466
AAATACAT	0.203
ACAACTGC	0.0557
AGGGACCT	-0.208
ATGATCTG	0.201
GGATCTCA	-0.0542
AATGCGGC	-0.0481
CGTGATAC	0.00515
GTATGGGA	-0.125
ATTTGACG	0.175
CCTCCCTC	-0.111
GCAACTCC	-0.162
ATCAGATG	0.035
GAACCCAA	-0.042

Sequence	PBM E-score
GGGGGAAC	-0.279
CATATCGC	0.113
ACCTGCAC	-0.104
GGTTACAC	-0.133
GAAATTGC	0.0471
CCCGAGAC	-0.239
AAACCACG	-0.0411
ACAGAGAC	0.0142
AGGACTGA	-0.167
AGTCATTA	0.074
CGCTAAGC	-0.0229
ACACTCGC	0.0904
GTAGGTCA	-0.233
CGGTGGTA	-0.114
GAGGCAGC	-0.208
GCCAATCA	-0.0448
GACATCCA	-0.0152
GAGTTGGA	0.18
ACCCAGCT	-0.143
ACGCCGGG	-0.3
AGATCATG	0.0396
AGCCAGAG	-0.196
AGGTCACC	-0.2
GACGTAGA	-0.296
CAATGTAG	0.043

Sequence	PBM E-score
AATAATAC	0.245
AAGTGCAC	0.16
CCTGTCTC	-0.156
GCGACTTA	-0.119
ACACGCTA	-0.00964
CGATAAAG	0.137
CTCCGTAC	-0.0575
AGTCATGA	0.0548
GTGAGTAA	0.0827
ACCGGGGG	-0.333
GTCCTAAA	-0.0119
ACGTCGCC	-0.246
GTATAATA	0.207
ATTGATTA	0.286
ATTAAATC	0.213
GTGTACAC	0.0902
TACAGGCA	-0.0896
AGGGCATA	0.121
CGTGTTAC	-0.114
CTATAAAC	0.219
CTACGCCC	-0.129
AACGGGAT	-0.00532
TAGTTCGA	0.0348
ACCCTTTG	-0.129
CCACCAGG	-0.225

Sequence	PBM E-score
AGTAGGGC	0.0017
CGTTTTAC	-0.0132
GCGCGAAC	-0.0266
CAAAGTCG	-0.0986
AGTGGTAG	0.0179
ATTGTGCC	-0.0949
ATGGTAGG	-0.14
TCCAACGA	-0.0709
ACCGAAAC	0.0158
CTAGATTA	0.184
CAGTACGA	0.0942
CTTAGGGC	-0.135
CACCTACG	-0.206
AGCTGCAT	-0.0402
CGCGGGTA	-0.00903
AACGACTG	-0.113
TTCCAAAA	0.168
ATACTAGA	0.233
AGTAGGAT	0.0548
